Source: a collection of fitness landscapes (doi:10.1126/science.1257360)
The other results are listed elsewhere or left out.

B1: PhoQ; a variant is named by its letters at X, in order, P23837 (parent)
chain: MKKLLRLFFPLSLRVRFLLATAAVVLVLSLAYGMVALIGYSVSFDKTTFRLLRGESNLFYTLAKWENNKLHVELPENIDKQSPTMTLIYDENGQLLWAQRDVPWLMKMIQPDWLKSNGFHEIEADVNDTSLLLSGDHSIQQQLQEVREDDDDAEMTHSVAVNVYPATSRMPKLTIVVVDTIPVELKSSYMVWSWFIYVLSANLLLVIPLLWVAAWWSLRPIEALAKEVRELEEHNRELLNPATTRELTSLVRNLNRLLKSERERYDKYRTTLTDLTHSLKTPLXXLQXXLRSLRSEKMSVSDAEPVMLEQISRISQQIGYYLHRASMRGGTLLSRELHPVAPLLDNLTSALNKVYQRKGVNISLDISPEISFVGEQNDFVEVMGNVLDNACKYCLEFVEISARQTDEHLYIVVEDDGPGIPLSKREVIFDRGQRVDTLRPGQGVGLAVAREITEQYEGKIVAGESMLGGARMEVIFGRQHSAPKDE

Variants of: B1
Test: enrichment ratio after two sorts for PhoP signalling (ratio (wild type AVST 3.29)); higher = more functional
Conditions: with PhoP (E. coli)

| Variant | enrichment ratio |
| --- | --- |
| SRMC | ≤ 0.25 |
| RKLE | ≤ 0.25 |
| AIWC | ≤ 0.25 |
| WRWF | ≤ 0.25 |
| WSLQ | 3.01 |
| FCCH | ≤ 0.25 |
| GMQD | ≤ 0.25 |
| DSDL | ≤ 0.25 |
| QISW | ≤ 0.25 |
| RDMG | ≤ 0.25 |
| MRNH | ≤ 0.25 |
| LGFI | 9.12 |
| LGGH | ≤ 0.25 |
| DAPI | ≤ 0.25 |
| AMYH | ≤ 0.25 |
| RHCK | ≤ 0.25 |
| IIGA | ≤ 0.25 |
| GFQS | ≤ 0.25 |
| LCDW | ≤ 0.25 |
| SQYN | ≤ 0.25 |
| IECF | ≤ 0.25 |
| ESLW | ≤ 0.25 |
| RTSF | ≤ 0.25 |
| KRNI | ≤ 0.25 |
| ASHP | ≤ 0.25 |
| RRVP | ≤ 0.25 |

| Variant | enrichment ratio |
| --- | --- |
| PRMR | ≤ 0.25 |
| SVMP | ≤ 0.25 |
| RMDF | ≤ 0.25 |
| DKID | ≤ 0.25 |
| RTDS | ≤ 0.25 |
| ITYV | ≤ 0.25 |
| VMIG | ≤ 0.25 |
| TCWH | ≤ 0.25 |
| ICRL | ≤ 0.25 |
| EKHN | ≤ 0.25 |
| RPWP | ≤ 0.25 |
| WNFP | ≤ 0.25 |
| WASI | ≤ 0.25 |
| LKIA | ≤ 0.25 |
| DLND | ≤ 0.25 |
| QLTH | ≤ 0.25 |
| GVSW | ≤ 0.25 |
| FDTP | ≤ 0.25 |
| LIFQ | ≤ 0.25 |
| PWNP | ≤ 0.25 |
| VLCP | ≤ 0.25 |
| NMGA | ≤ 0.25 |
| RTYV | ≤ 0.25 |
| GQQN | ≤ 0.25 |
| WPPR | ≤ 0.25 |
| TNDG | ≤ 0.25 |

| Variant | enrichment ratio |
| --- | --- |
| YWQC | ≤ 0.25 |
| AHDK | ≤ 0.25 |
| MGTD | ≤ 0.25 |
| ICTQ | ≤ 0.25 |
| GYHC | ≤ 0.25 |
| MHDG | ≤ 0.25 |
| NCCG | ≤ 0.25 |
| MKIA | ≤ 0.25 |
| DMCL | ≤ 0.25 |
| GIKH | ≤ 0.25 |
| PLSD | 0.397 |
| YYKK | ≤ 0.25 |
| QRQR | ≤ 0.25 |
| MGHG | ≤ 0.25 |
| QKDT | ≤ 0.25 |
| WENK | ≤ 0.25 |
| EMGP | ≤ 0.25 |
| MAMC | ≤ 0.25 |
| IYMF | ≤ 0.25 |
| ICVY | ≤ 0.25 |
| FGAT | ≤ 0.25 |
| AFAK | ≤ 0.25 |
| RVRI | ≤ 0.25 |
| SQEN | ≤ 0.25 |
| SVYY | 0.294 |
| SIQK | 2.81 |

| Variant | enrichment ratio |
| --- | --- |
| APLM | ≤ 0.25 |
| NNKW | ≤ 0.25 |
| VWVN | ≤ 0.25 |
| LGQQ | ≤ 0.25 |
| FGMA | 0.944 |
| MPGT | ≤ 0.25 |
| HDMG | ≤ 0.25 |
| WRSG | ≤ 0.25 |
| PDEG | ≤ 0.25 |
| FMWF | ≤ 0.25 |
| LHKD | ≤ 0.25 |
| ENNP | ≤ 0.25 |
| ARGI | ≤ 0.25 |
| DRSV | ≤ 0.25 |
| QVGK | ≤ 0.25 |
| RDNL | ≤ 0.25 |
| KPTG | ≤ 0.25 |
| LVWT | ≤ 0.25 |
| ICSC | ≤ 0.25 |
| AWIC | ≤ 0.25 |
| FQFC | ≤ 0.25 |
| FKWG | ≤ 0.25 |
| DDSP | ≤ 0.25 |
| TVCI | 0.444 |
| VCMW | ≤ 0.25 |
| NPTR | ≤ 0.25 |

| Variant | enrichment ratio |
| --- | --- |
| DHVM | ≤ 0.25 |
| DSGP | ≤ 0.25 |
| EGFY | ≤ 0.25 |
| MARC | ≤ 0.25 |
| DYIM | ≤ 0.25 |
| WVVD | ≤ 0.25 |
| GGTN | ≤ 0.25 |
| FFET | ≤ 0.25 |
| RRNG | ≤ 0.25 |
| RLFY | ≤ 0.25 |
| ILMG | ≤ 0.25 |
| LTMT | ≤ 0.25 |
| FEHV | ≤ 0.25 |
| SGQI | 8 |
| VYRF | ≤ 0.25 |
| ASSG | 9.05 |
| VARG | ≤ 0.25 |
| VRCS | ≤ 0.25 |
| GQCK | ≤ 0.25 |
| YNEF | ≤ 0.25 |
| DWGS | ≤ 0.25 |
| KMMG | ≤ 0.25 |
| EPAP | ≤ 0.25 |
| PNTA | ≤ 0.25 |
| MFAN | ≤ 0.25 |
| AHKP | ≤ 0.25 |

| Variant | enrichment ratio |
| --- | --- |
| ERGP | ≤ 0.25 |
| GDYF | ≤ 0.25 |
| LVVL | ≤ 0.25 |
| MDVK | ≤ 0.25 |
| IAMQ | 7.36 |
| HYWF | ≤ 0.25 |
| KCMS | ≤ 0.25 |
| FPFW | ≤ 0.25 |
| PCCL | ≤ 0.25 |
| QVCS | ≤ 0.25 |
| EHIM | ≤ 0.25 |
| VIGQ | ≤ 0.25 |
| WEID | ≤ 0.25 |
| VHAA | ≤ 0.25 |
| FELN | 13.7 |
| IIPV | ≤ 0.25 |
| RPYC | ≤ 0.25 |
| YQRP | ≤ 0.25 |
| FTKV | ≤ 0.25 |
| WVSW | ≤ 0.25 |
| PHRL | ≤ 0.25 |
| STVV | 9.33 |
| WQLH | ≤ 0.25 |
